# The campaign covered roughly 310,000 compounds. About 14,000 (4.5%) showed an effect of 50% or more. Effects have a minus sign here. This is one part of the list.
# Molecular target: human ether-à-go-go-related gene (hERG) potassium channel (human, UniProt Q12809)
# Experiment: primary screen, population patch clamp on CHO cells stably expressing hERG
# 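Note: peak tail current of the secondary pulse compared with the same well before compound.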
# Sequence of human ether-à-go-go-related gene (hERG) potassium channel (Q12809 whole entry, looked up): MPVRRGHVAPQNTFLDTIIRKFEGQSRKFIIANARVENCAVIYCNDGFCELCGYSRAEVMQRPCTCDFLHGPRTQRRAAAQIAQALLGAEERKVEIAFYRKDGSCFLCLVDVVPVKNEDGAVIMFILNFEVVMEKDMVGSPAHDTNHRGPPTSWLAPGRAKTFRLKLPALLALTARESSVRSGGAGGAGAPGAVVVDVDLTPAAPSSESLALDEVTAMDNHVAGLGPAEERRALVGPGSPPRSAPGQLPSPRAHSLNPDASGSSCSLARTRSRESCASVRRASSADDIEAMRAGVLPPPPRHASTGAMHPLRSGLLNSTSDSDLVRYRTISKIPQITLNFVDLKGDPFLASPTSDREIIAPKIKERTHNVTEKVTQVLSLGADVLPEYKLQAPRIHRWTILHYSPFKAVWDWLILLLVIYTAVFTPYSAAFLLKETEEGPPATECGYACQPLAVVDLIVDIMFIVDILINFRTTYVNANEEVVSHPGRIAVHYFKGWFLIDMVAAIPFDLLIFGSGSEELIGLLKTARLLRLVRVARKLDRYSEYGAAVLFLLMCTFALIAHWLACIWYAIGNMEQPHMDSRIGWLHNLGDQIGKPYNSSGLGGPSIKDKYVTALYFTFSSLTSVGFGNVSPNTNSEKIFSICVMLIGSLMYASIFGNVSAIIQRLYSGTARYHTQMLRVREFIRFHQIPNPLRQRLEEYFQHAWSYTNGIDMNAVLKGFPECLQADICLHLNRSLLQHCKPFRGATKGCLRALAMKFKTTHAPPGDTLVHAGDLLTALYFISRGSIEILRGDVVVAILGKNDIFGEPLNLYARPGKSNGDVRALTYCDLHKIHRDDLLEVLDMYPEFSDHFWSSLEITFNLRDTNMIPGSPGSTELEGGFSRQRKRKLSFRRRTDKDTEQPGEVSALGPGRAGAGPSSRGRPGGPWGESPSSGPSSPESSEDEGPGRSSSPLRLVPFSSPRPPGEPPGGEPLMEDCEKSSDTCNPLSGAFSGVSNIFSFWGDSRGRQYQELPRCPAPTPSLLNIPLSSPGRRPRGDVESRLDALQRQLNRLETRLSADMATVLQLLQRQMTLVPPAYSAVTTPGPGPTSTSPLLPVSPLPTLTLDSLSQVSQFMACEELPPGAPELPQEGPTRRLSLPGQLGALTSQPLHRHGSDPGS
row,SMILES,"hERG current change (%, negative = inhibition) at 10uM"
1,CCC(=O)Nc1cc(NC(=O)CSc2ncc(-c3ccc(F)cc3)n2Cc2ccco2)ccc1C,-25.9%
2,CSc1ccc(NC(=O)CC(C)=O)cc1,-21.3%
3,O=C(CCN1C(=O)c2ccccc2C1=O)N1CCCCCC1,0.431%
4,Cc1ccc(-c2nn(CC(=O)N(C)C)c(=O)c3ccccc23)cc1S(=O)(=O)N(C)C,-10%
5,Cc1onc(-c2ccccc2Cl)c1C(=O)Nc1ccc(OCC(=O)N2CCOCC2)cc1,-3.95%
6,COc1cc(NC(=S)N2CCc3ccccc3C2)cc(OC)c1,-23.6%
7,Cc1ccc(CNC(=O)CC2Nc3c4ccccc4nc(=S)n3C2=O)cc1 (stereo not drawn),59.6%
8,CCOc1ccc(-n2c(=O)c3sccc3n(CC(=O)Nc3cccc(OC)c3)c2=O)cc1,8.63%
9,CCOC(=O)c1c(-c2ccc(OC)cc2)oc2ccc(OC(=O)N(C)C)cc12,10.1%
10,CC(=O)Oc1ccc(-c2csc(Nc3ccc(Cl)cn3)n2)cc1,18.4%
11,COc1ccc(CN2CCN(S(=O)(=O)c3ccccc3)CC2)c(OC)c1.O=C(O)C(=O)O,-63.5%
12,COc1cc2cc3c(N)c(C(=O)Nc4sc(C)c(C)c4C#N)sc3nc2cc1OC,-36.7%
13,Cc1[nH]c2ccccc2c1C1(O)C(=O)N(Cc2ccc3c(c2)OCO3)c2ccccc21 (stereo not drawn),7.27%
14,Cc1ccc(C)c(S(=O)(=O)N(C(=O)c2ccncc2)c2ccc(OC(=O)c3ccncc3)cc2)c1,5.8%
15,Cc1[nH]nc(Nc2ccc(Br)cc2)c1[N+](=O)[O-],-8.57%
16,CCNc1nc(NCC)nc(N/N=C/c2ccc(Br)cc2)n1,-74.6%
17,Cc1ccc(-c2nnc(NC(=O)Cc3ccc(F)cc3)o2)c(C)c1,12%
18,CCn1nc(C)c(CN2CCc3c([nH]c4ccccc34)C2C(C)(C)C)c1C (stereo not drawn),-3.17%
19,Cc1nc2ccccc2cc1C(=O)N/N=C/c1ccc([N+](=O)[O-])cc1,-12.2%
20,N#Cc1c(-c2ccccc2)c(-c2ccccc2)n[nH]c1=O,19.7%
21,COc1ccccc1CC(=O)NCC1CCCO1 (stereo not drawn),3.69%
22,Cc1ccccc1Nc1nc(N)nc(CSc2nnc(C)n2C)n1,20.6%
23,CCCCN(CC)CCNC(=O)CCC(=O)Nc1ccc2nc(N3CCN(C)CC3)cc(C)c2c1,12.3%
24,CCC(C)N(C)Cc1cccc(C2(O)CCN(S(=O)(=O)c3ccc(F)cc3)CC2)c1 (stereo not drawn),-69.3%
25,C/C(=N\NC(=O)Cn1c(C)nc2ccccc21)c1cccs1,-12.8%
26,CC(C)C(=O)N1CCC(c2nc(-c3ccc(S(=O)(=O)N4CCCC4)cc3)no2)CC1,-5.76%
27,O=C(Nc1nnc(-c2ccc(Cl)cc2)o1)c1cccc(N2C(=O)CCC2=O)c1,12.2%

row,SMILES,"hERG current change (%, negative = inhibition) at 10uM"
1,COc1ccc(C(=O)NCC(c2cccnc2)N2CCN(c3ccccc3)CC2)cc1OC (stereo not drawn),-9.6%
2,Cc1cccc(C(=O)N[C@H](C(=O)Nc2nc(C)cs2)C(C)C)c1,-5.19%
3,Cc1cc(C)c(C2C(C#N)=C(N)Oc3n[nH]c(C)c32)cc1CN1CCCC1 (stereo not drawn),-14.1%
4,Cc1cccnc1NC(=O)Nc1ccc(Cl)cc1,9.39%
5,COc1ccc(C2c3ccsc3CCN2C(=O)C(C)(C)C)cc1 (stereo not drawn),-15.4%
6,COc1cc(C(=O)NCC(=O)N/N=C/c2cccnc2)cc(OC)c1OC,10.4%
7,Cc1ccc(CN2CC(C(=O)NNC(=O)c3ccc(F)cc3)CC2=O)cc1 (stereo not drawn),8.82%
8,CN(C)/C=C/C(=O)c1ccc2noc(-c3ccccc3)c2c1,-62.6%
9,Cc1cc(=O)oc2cc(OC(C)C(=O)NCC3CCC(C(=O)O)CC3)ccc12 (stereo not drawn),-7.56%
10,COC(=O)c1ccc(NC(=O)CSc2nnc(COc3ccccc3)n2C)cc1,19%
11,C=CC[C@@H]1C=C[C@H](O/N=C/c2ccc(C(=O)N3[C@H](c4ccc(C)cc4)[C@@H](C)CC[C@H]3C(=O)OC)cc2)[C@@H](CO)O1,-0.313%
12,COC(=O)C1=C(C)N(C)C(C)=C(C(=O)OC)C1c1ccc(C(=O)OC)cc1,8.97%
13,COc1ccccc1NS(=O)(=O)c1cccc(C(=O)N2CCCCCCC2)c1,-19.7%
14,O=C(c1ccc(Br)o1)N1CCN(C/C=C/c2ccccc2)CC1,-61.8%
15,CN(C(=O)COC(=O)C1c2ccccc2Oc2ccccc21)C1CCS(=O)(=O)C1 (stereo not drawn),4.56%
16,O=C(NCc1ccccc1Cl)NCc1ccccc1Cl,-9.85%
17,Cc1oc2ccc(OCc3ccc(F)cc3)cc2c1C(=O)O,8.17%
18,COc1cccc(C(=O)N/N=C/C(Br)=C/c2ccccc2)c1,-42.3%
19,CCCCc1nnc(NC(=O)C(C)Sc2nc(N)cc(=O)[nH]2)s1 (stereo not drawn),-7.65%
20,O=C(CCN1CCCCC1)N/N=C/c1c[nH]c2ccccc12,5.39%
21,CC(C)Cc1nnc(NC(=O)CSc2nc(O)c(Cc3ccccc3)c(=O)[nH]2)s1,24%
22,N#CC1(NC(=O)CSc2n[nH]c(-c3ccccc3)n2)CCCCC1,3.19%
23,Cc1ccc(C)c(S(=O)(=O)N2CCCCC2CCNC(=O)C(=O)NCc2ccncc2)c1 (stereo not drawn),-45.7%
24,COc1ccc(NC(=O)CCCN2C(=O)CN(C)C2=O)c(OC)c1,-4.4%
25,CCOCCn1c(CN2CCN(c3ccc(F)cc3)CC2)nc2c1c(=O)n(C)c(=O)n2C,-56.2%
26,CCOC(=O)c1ccc(N2C(=O)CC(Sc3ncccn3)C2=O)cc1 (stereo not drawn),2.47%
27,CC(C)(C)c1cc(C(=O)CCN2CCOCC2)cc(C(C)(C)C)c1O,-42.7%
